Whole data set: some 16,000 sequences, median “Z-score” near -0.37, cut for the highest 2% near 3.1. The list shows a part of the results.
The sequences below were run on RBM10 RRM1-ZnF-RRM2 (GST-tagged construct) (assay: RNAcompete 7-mer binding Z-score; higher = stronger binding preference).
Outline: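 In 1 ml Hepes pH 7.8 buffer with KCl, NaCl, glycerol, DTT, BSA and glutathione Sepharose beads, GST-tagged RBM10 constructs (20 pmol) were incubated for 30 min at 4°C with 1.5 nmol of a designed pool of 241 399 RNAs up to 41 nt. Four 2-min washes at 4°C followed, and bound RNA was detected by microarray hybridisation. Heptamer motif enrichment was expressed as a one-sided Z-score across probes containing each motif.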

Row | Sequence | RNAcompete 7-mer binding Z-score
1 | UCGUUAU | -0.781
2 | AAUCUAU | -0.595
3 | UGUGUUG | -0.0343
4 | UGGAAUC | 0.57
5 | UUACGGC | -0.3
6 | GCCCAAA | -0.85
7 | ACUUGAG | -0.541
8 | UCUAGGG | 0.92
9 | GCGGGCC | 0.25
10 | GCGUCCA | -0.406
11 | UUGUUAC | -0.493
12 | CGUAAAA | -0.187
13 | AUUGCCG | -0.555
14 | CCAGAGU | 0.00944
15 | AUUAUAA | -0.391
16 | GAGCCCU | -0.825
17 | UCGAUUU | -0.646
18 | AUCGCCC | -0.901
19 | UAGAGUG | 0.971
20 | GACGGUC | -0.249
21 | AGACUGC | -0.934
22 | UGAUUAG | -0.0306
23 | CUCUUUU | -0.788

Row | Sequence | RNAcompete 7-mer binding Z-score
24 | AGACACG | -0.362
25 | AUUACAC | -0.537
26 | UACACGG | 0.21
27 | GAUGAAC | 0.385
28 | AACAUCC | -0.541
29 | UUCACAA | -0.581
30 | GUUGAGU | 0.57
31 | CCGCAUA | -0.817
32 | GAACUCG | -0.497
33 | CGCUAGG | 0.468
34 | UGGCACA | 0.497
35 | GCUUUUC | -0.763
36 | ACCGAUU | -0.53
37 | UAUAUGC | -0.439
38 | UGUUUUG | -0.391
39 | AUUCUCA | -0.675
40 | CUUGCCA | -0.843
41 | UUCAAAU | -0.595
42 | CCAAUGU | -0.3
43 | UUAACAU | -0.635
44 | GCACGAG | 0.632
45 | AAAGAGU | 0.49
46 | GCUCAGA | -0.202

Row | Sequence | RNAcompete 7-mer binding Z-score
47 | AGAUUAU | -0.147
48 | CGGUACA | 0.552
49 | GAAAAGA | 0.654
50 | UUUACUA | -0.781
51 | GUCCGCG | -0.18
52 | GACGGGC | 1.28
53 | CCCACGG | -0.275
54 | CGAGUGU | 0.264
55 | UACUGCG | -0.402
56 | UACAGCA | -0.0743
57 | AUACUUC | -0.908
58 | UGAGAAC | 0.0349
59 | GAUCUAU | -0.577
60 | CUUCGGA | -0.613
61 | AGUCAUA | -0.347
62 | AGCAAAU | -0.347
63 | AAGCGUC | -0.326
64 | GCCGGCC | -0.653
65 | AGAUAGU | 0.104
66 | AUAACGC | -0.624
67 | UCGCCCG | -0.792
68 | AGCCUCU | -0.817
69 | AAAAAGU | 0.0532

Row | Sequence | RNAcompete 7-mer binding Z-score
70 | AAUUUUU | -0.781
71 | GUCCCAG | -0.493
72 | CCUCUGU | -0.679
73 | UUCAGAA | -0.42
74 | UUAUCCA | -0.581
75 | GCUCAAG | -0.428
76 | AUGAACC | -0.344
77 | CCACUUU | -0.817
78 | GUUUUCG | -0.107
79 | UAUCGUC | -0.606
80 | UGAAUCG | 0.221
81 | GUCGUUA | -0.125
82 | GGGGCUA | 1.81
83 | GGUGGGU | 3.47
84 | CGGUCCU | -0.57
85 | UCUCUCC | -0.806
86 | CAGGACG | 1.32
87 | GCAUGAC | -0.373
88 | CCGAUCU | -0.938
89 | CCGCUGU | -0.679
90 | CGCCUAG | -0.635
91 | GCUCCAA | -0.511
92 | CAUUCCU | -0.846

Row | Sequence | RNAcompete 7-mer binding Z-score
93 | GCCGCUA | -0.734
94 | AUACUCA | -0.697
95 | GGAUUGA | 1.79
96 | AGGUCGC | 0.0167
97 | GGCCGGC | -0.202
98 | CUCCAAU | -0.606
99 | GCGAAAA | 0.297
100 | GCGGGUG | 2.75
101 | CAAGUCC | -0.639
102 | GACCGCC | -0.876
103 | AUGUGUC | -0.133
104 | GAGCAUA | 0.283
105 | AAACACA | -0.0707
106 | UAGCAGU | -0.162
107 | UCGUCCC | -0.704
108 | GCACUAC | -0.384
109 | GUGCCCG | -0.249
110 | GCCUGUG | -0.541
111 | AUUUGUA | -0.577
112 | UCUCGGA | -0.329
113 | UGAGGAC | 0.862
114 | UGCGUUA | -0.267
115 | GCUAUUU | -0.781

Row | Sequence | RNAcompete 7-mer binding Z-score
116 | CAACAAC | -0.486
117 | AACCAAA | -0.26
118 | CUCAGUA | -0.672
119 | UGUUGAG | 0.512
120 | GCCCACG | -0.577
121 | GCUACAC | -0.129
122 | CAAUUAA | -0.577
123 | AAUACCC | -0.632
124 | GAUUUCG | -0.355
125 | GUGUGAC | 0.465
126 | AAUUUUC | -0.788
127 | CGUGGCC | -0.162
128 | ACCCUAG | -0.785
129 | GCUCGAC | -0.53
130 | CGGACGA | 0.487
131 | UUGGUAA | 0.505
132 | CCAAGAC | -0.686
133 | AUGAACG | 0.33
134 | CGCACGU | -0.402
135 | UCCGACA | -0.719
136 | GCUAAAC | -0.34
137 | GAUAGAU | 0.432
138 | UUUGUGA | -0.304

Row | Sequence | RNAcompete 7-mer binding Z-score
139 | UGGGCGC | 0.989
140 | ACUAGUU | -0.391
141 | CUCACGC | -0.755
142 | CUGUAUA | -0.632
143 | GAUGUUG | 0.436
144 | GACAUCG | -0.38
145 | AUCAUCC | -0.675
146 | UCAGUCC | -0.686
147 | AGAACAC | -0.493
148 | UUGGAUA | 0.658
149 | GUGAGAU | 0.811
150 | CGAUCUC | -0.821
151 | CCGGGAC | 0.173
152 | CUGCAAC | -0.752
153 | GAGGCGG | 2.59
154 | AGGCUAC | -0.289
155 | CCGACAU | -0.763
156 | CAGGGGC | 1.52
157 | UUGUGGA | 0.825
158 | CGUGCUA | -0.555
159 | CCGCCAC | -0.643
160 | CAGUGCC | -0.235
161 | GGCGCGU | 0.476

Row | Sequence | RNAcompete 7-mer binding Z-score
162 | UCGAAAA | -0.355
163 | GUCUUAU | -0.785
164 | UGCAAUG | 0.119
165 | UAUCUGU | -0.763
166 | AUAGCCU | -0.704
167 | UCCCUUA | -0.843
168 | CACUAUG | -0.391
169 | CUGACGU | -0.53
170 | AGACAAU | -0.275
171 | AGGAUCA | 0.559
172 | AAGAUUG | 0.0932
173 | AAUCGGG | 2.26
174 | GGUUUAC | 0.396
175 | GUAUUAU | -0.118
176 | GUAGGGU | 4.48
177 | CUUCAGC | -0.861
178 | CGCAUCG | -0.424
179 | ACGGAAA | 1.24
180 | AUACACC | -0.774
181 | GGUUGCA | 0.876
182 | AUCGUGG | 1.14
183 | GAUGUGG | 2.88
184 | UGGAGAC | 1.6

Reference: the supplement of paper PMC5499739
